B1: UniProt A0EPZ9; numbered along this chain (parent)
chain: MDWQKSLTLIVALTLSRGIGLKNDLPWKLKSDMMFFSRVTSGLLVTRSTGQMNVVLMGRKTWESLPAHSRPLKNRINVVISRQEVLDLGGGAYHARSLDDALALLSQIYDSTSKIQLNRVFVIGGGELCKAAMEHSRLNRIIATVIHNEVDCDVFFPIDFRSSQSCLPWRKQDHSVLEAWVGSKVPQGKINENGFIYEFEMWIRDI

Variants of B1 are the subject of the data set. Kind of data set: selection coefficient against synonymous wild-type codons (log2 per generation); higher = faster growth than wild type. The conditions noted are these: with Saccharomyces cerevisiae carrying the variant on a plasmid. The protocol:
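Pooled growth of yeast carrying single-residue variants of P. jirovecii dihydrofolate reductase (own DFR1 gene intact), two passages at 30 °C, three cultures, sequenced before and after. Codons with under 15 starting reads are left out; codons of one change are averaged.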

Data on 15 variants can be found in the supplement of paper PMC11125491.

± gives the standard deviation of the averaged measurements. Growth of baker's yeast expressing single-residue variants of Pneumocystis jirovecii dihydrofolate reductase in 8.8 or 44 µM methotrexate (about 75% and 90% inhibition of the wild type). Selection coefficient per generation; 0 = like wild type, above 0 = less sensitive, below 0 = more sensitive or loss of function. No active / inactive call per row; the paper calls resistant above 0.220 (8.8 µM) or 0.243 (44 µM) together with a significance test. At 44 µM about 15% of codons end with one read or none, so the lowest values are floors (replicate rank correlation 0.74; 0.94 at 8.8 µM).

With MDWQKSLTLIVALTLSRGIGLKNDLPWKLKSDMMFFSRVTSGLLVTRSTGQMNVVLMGRKTWESLPAHSRPLKNRINVVISRQEVLDLGGGAYHARSLDDALALLSQIYDSTSKIQLNRVFVIGGGELCKAAMEHSRLNRIIATVIHNEVDTDVFFPIDFRSSQSCLPWRKQDHSVLEAWVGSKVPQGKINENGFIYEFEMWIRDI [C152T], the “selection coefficient against synonymous wild-type codons (log2)” value (from here on “selection coefficient … (log2)”) (methotrexate 8.8 µM) worked out at 0.191 ± 0.037 and the “selection coefficient … (log2)” value (methotrexate 44 µM) worked out at 0.123 ± 0.002.

MDWQKSLTLIVALTLSRGIGLKNDLPWKLKSDMMFFSRVTSGLLVTRSTGQMNVVLMGRKTWESLPAHSRPLKNRINVVISRQEVLDLGGGAYHARSLDDALALLSQIYDSTSKIQLNRVFVIGGGELNKAAMEHSRLNRIIATVIHNEVDCDVFFPIDFRSSQSCLPWRKQDHSVLEAWVGSKVPQGKINENGFIYEFEMWIRDI [C129N]: the “selection coefficient … (log2)” value by setting is: (methotrexate 8.8 µM) 0.334 ± 0.024; (methotrexate 44 µM) 0.53 ± 0.056.

Consider MDWQKSLTLIVALTLSRGIGLKNDLPWKLKSDMMFFSRVTSGLLVTRSTNQMNVVLMGRKTWESLPAHSRPLKNRINVVISRQEVLDLGGGAYHARSLDDALALLSQIYDSTSKIQLNRVFVIGGGELCKAAMEHSRLNRIIATVIHNEVDCDVFFPIDFRSSQSCLPWRKQDHSVLEAWVGSKVPQGKINENGFIYEFEMWIRDI [G50N], for which the “selection coefficient … (log2)” value (methotrexate 8.8 µM) was -0.00225 ± 0.017 and the “selection coefficient … (log2)” value (methotrexate 44 µM) was -0.108 ± 0.049.

MDWQKSLTLIVALTLSRGIGLKNDLPWKLKSDMMFFSRVTSGLLVTRSTGQMNVVLMGRKTWESLPAHSRPLKNRINVVISRQEVLDLGGGAYHGRSLDDALALLSQIYDSTSKIQLNRVFVIGGGELCKAAMEHSRLNRIIATVIHNEVDCDVFFPIDFRSSQSCLPWRKQDHSVLEAWVGSKVPQGKINENGFIYEFEMWIRDI [A95G]: the “selection coefficient … (log2)” value was -0.635 ± 0.13 (methotrexate 8.8 µM) and -0.202 ± 0.1 (methotrexate 44 µM).

Consider MDWQKSLTLIVALTLSRGIGLKNDLPWKLKSDMMFFSRVTSALLVTRSTGQMNVVLMGRKTWESLPAHSRPLKNRINVVISRQEVLDLGGGAYHARSLDDALALLSQIYDSTSKIQLNRVFVIGGGELCKAAMEHSRLNRIIATVIHNEVDCDVFFPIDFRSSQSCLPWRKQDHSVLEAWVGSKVPQGKINENGFIYEFEMWIRDI [G42A], for which the “selection coefficient … (log2)” value (methotrexate 8.8 µM) stood at 0.00197 ± 0.045 and the “selection coefficient … (log2)” value (methotrexate 44 µM) turned out to be 0.0149 ± 0.15.

As for MDWQKSLTLIVALTLSRGIGLKNDLPWKLKSDMMFFSRVTSGLLVTRSTGQMNVVLMGRKTWESLPAHSRPLKNRINVVISRQEVLDLGGGAYHARSLDDALALLSQIYDSTSKIQLNRVFVIGGGELCKAAMEHSRLNRIIACVIHNEVDCDVFFPIDFRSSQSCLPWRKQDHSVLEAWVGSKVPQGKINENGFIYEFEMWIRDI [T144C], the “selection coefficient … (log2)” value reads like this: (methotrexate 8.8 µM) 0.401 ± 0.011; (methotrexate 44 µM) 0.54 ± 0.041.

Turning to MDWQKSLTLIVALTLSRGIGLKNDLPWKLKSDMMFFSRVTSGLLVTRSTGQMNVVLMGRKTWESLPAHSRPLKNRINVVISRQEVLDLGGGAYHARSLDDALALLSQIYDSTSKIQLNRVFVIGGGELCKAAMEHSRLNRIIATVIHNEVDCDVFNPIDFRSSQSCLPWRKQDHSVLEAWVGSKVPQGKINENGFIYEFEMWIRDI [F156N], the “selection coefficient … (log2)” value is 0.641 ± 0.046 (methotrexate 8.8 µM) and 0.831 ± 0.043 (methotrexate 44 µM).

MDWQKSLTLIVALTLSRGIGLKNDLPWKLKSDMMFFSRVTSGLLVTRSTGQMNVVLMGRKTWESLPAHSRPLKNRINVVISRQEVLDLGGGAYHARSLDDALALLSQIYDSTSKIHLNRVFVIGGGELCKAAMEHSRLNRIIATVIHNEVDCDVFFPIDFRSSQSCLPWRKQDHSVLEAWVGSKVPQGKINENGFIYEFEMWIRDI [Q116H]: the “selection coefficient … (log2)” value (methotrexate 8.8 µM) was -0.0577 ± 0.063 and the “selection coefficient … (log2)” value (methotrexate 44 µM) came to 0.0183 ± 0.083.

With MDWQKSLTLIVALTLSRGIGLKNDLPWKLKSDMMFFSRVTSGLLVTRSTGQMNVVLMGRKTWESLPAHSRPLKNRINVVISRQEVLDLGGGAYHARSLDDALALLSQIYDSTSKIQLNRVFVIGGGELCKAAMEHSRLNRIIATVIHNEVDCDVFFPIDFRSSQSCLPWRKQDHSVLEAWVGSKVPQGCINENGFIYEFEMWIRDI [K189C], the “selection coefficient … (log2)” value reads like this: (methotrexate 8.8 µM) -0.0426 ± 0.15; (methotrexate 44 µM) -0.263 ± 0.05.

For MDWQKSLTLIVALTLSRGIGLKNDLPWKLKSDMMFFSRVTSGLLVTRSTGQMNVVLEGRKTWESLPAHSRPLKNRINVVISRQEVLDLGGGAYHARSLDDALALLSQIYDSTSKIQLNRVFVIGGGELCKAAMEHSRLNRIIATVIHNEVDCDVFFPIDFRSSQSCLPWRKQDHSVLEAWVGSKVPQGKINENGFIYEFEMWIRDI [M57E], the “selection coefficient … (log2)” value was -0.503 ± 0.016 (methotrexate 8.8 µM) and -0.213 ± 0.087 (methotrexate 44 µM).

As to MDWQKSLTLIVALTLSRGIGLKNDLPWKLKSDMMFFSRVTSGLLVTRSTGQMNVVLMGRKTWESLPAHSRPLKNRINVVISRQEVLDLGGGAYHARSLDDALALLSQIYDSSSKIQLNRVFVIGGGELCKAAMEHSRLNRIIATVIHNEVDCDVFFPIDFRSSQSCLPWRKQDHSVLEAWVGSKVPQGKINENGFIYEFEMWIRDI [T112S], the “selection coefficient … (log2)” value is -0.00107 ± 0.06 (methotrexate 8.8 µM) and 0.0468 ± 0.067 (methotrexate 44 µM).

In the case of MDWQKSLTLIVALTLSRGIGLKNDLPHKLKSDMMFFSRVTSGLLVTRSTGQMNVVLMGRKTWESLPAHSRPLKNRINVVISRQEVLDLGGGAYHARSLDDALALLSQIYDSTSKIQLNRVFVIGGGELCKAAMEHSRLNRIIATVIHNEVDCDVFFPIDFRSSQSCLPWRKQDHSVLEAWVGSKVPQGKINENGFIYEFEMWIRDI [W27H], the “selection coefficient … (log2)” value was 0.383 ± 0.028 (methotrexate 8.8 µM) and 0.412 ± 0.05 (methotrexate 44 µM).

For MDWQKSLTLINALTLSRGIGLKNDLPWKLKSDMMFFSRVTSGLLVTRSTGQMNVVLMGRKTWESLPAHSRPLKNRINVVISRQEVLDLGGGAYHARSLDDALALLSQIYDSTSKIQLNRVFVIGGGELCKAAMEHSRLNRIIATVIHNEVDCDVFFPIDFRSSQSCLPWRKQDHSVLEAWVGSKVPQGKINENGFIYEFEMWIRDI [V11N], the “selection coefficient … (log2)” value came to 0.166 ± 0.03 (methotrexate 8.8 µM) and 0.189 ± 0.12 (methotrexate 44 µM).

Consider MDWQKSLTLIVALTLSRGIGLKNDLPWKLKSDMMFFSRVTSGLLVTRSTGQMNVVLMGRKTWESLPAHSRPLKNRINVVISRQEVLDLGGGAYHARSLDDALALLSQIYDSTSKIQLNRVFVIGGGELCKAAMEHSRLNRIIATVIHNEVDCDVFFPIDFRSSQSCLPWRKQDHSVLEAWVGSKVPQGKINENGFIYETEMWIRDI [F199T], for which the “selection coefficient … (log2)” value was found to be 0.717 ± 0.079 (methotrexate 8.8 µM) and 0.913 ± 0.09 (methotrexate 44 µM).

As to MDWQKSLTLIVALTLSRGIGLKNDLPWKLKSDMMFFSRVTSGLLETRSTGQMNVVLMGRKTWESLPAHSRPLKNRINVVISRQEVLDLGGGAYHARSLDDALALLSQIYDSTSKIQLNRVFVIGGGELCKAAMEHSRLNRIIATVIHNEVDCDVFFPIDFRSSQSCLPWRKQDHSVLEAWVGSKVPQGKINENGFIYEFEMWIRDI [V45E], the “selection coefficient … (log2)” value by setting is: (methotrexate 8.8 µM) 0.324 ± 0.059; (methotrexate 44 µM) 0.342 ± 0.024.
